# Data published in PubChem BioAssay AID504466 (National Center for Advancing Translational Sciences (NCATS), 2011).
# In all, about 330,000 compounds went through this assay and about 4,200 (1.3%) were called active. The inconclusive results got no clear call from the source; some entries with a clear call stand among them for comparison. Calls follow the shape of the dose curve; as a rule, active = well fitted activation curve with a large enough effect; inconclusive = small, poorly fitted or top-dose-only effect; inactive = no such curve, though single readings can be large or run the other way. Potencies of inconclusive entries are doubtful fits and often do not repeat.
# Experiment: qHTS screen for small molecules that induce genotoxicity in human embryonic kidney (HEK293T) cells expressing luciferase-tagged ELG1; also: nearly all actives have a fitted effect of over 60% in size; as to activity change, positive = activation: % of control where 0% means no effect
# Settings: HEK293T ELG1-luciferase reporter, luminescence, 16 h; series mostly up to 46 µM; activity change, positive = activation: at the top concentration
# How it was run: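 Genotoxic stress is detected as increased luminescence from luciferase-tagged ELG1 in HEK293T cells, measured with ONE-Glo after a 16 hr treatment at 37 °C.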
# Potency is read from the fitted curve at half-maximal effect; tags tell the direction and shape of the fitted curve.
Compound,Potency,"activity change, positive = activation"
Cc1ccc(-c2nn3c(C)nnc3c3ccccc23)cc1S(=O)(=O)NCCO,"inconclusive: 18.3 µM [activator, single point]",–
Clc1ccccc1CN1CCN(c2ccccc2)CC1,–,inactive: -0.419%
CC(C)(C)n1cc(C(=O)c2ccc3ccccc3c2O)cn1,"inconclusive: 0.92 µM [activator, partial curve]",–
CCN(CC)c1ccc(N=Cc2c(O)n(-c3ccccc3)c(=O)[nH]c2=O)cc1,–,inactive: 1.16%
Cn1c(O)c(/C=C2\N=c3ccccc3=C2CCNC(=S)NC2CC2)c(=O)n(C)c1=O,"inconclusive: 23.1 µM [activator, single point]",–
CC1CN(CC(=O)c2ccccc2Cl)CC(C)O1 (centres undefined),–,inactive: 0.975%
N#Cc1cc2c(nc1SCC(=O)Nc1cc(Cl)ccc1Cl)C1CCN2CC1,"inconclusive: 18.4 µM [activator, single point]",–
O=C(c1ccccc1)C(CN1CCCC1)c1ccccc1 (centres undefined),–,inactive: -12.1%
C=CCn1c(O)c(C(C)=Nc2ccc(N(C)C)cc2)c(=O)[nH]c1=O,"inconclusive: 13 µM [activator, partial curve, poor fit]",–
O=C1NC(=O)C(=Cc2cccc(OCCOc3ccccc3)c2)C(=O)N1,"inconclusive: 6.51 µM [activator, partial curve, poor fit]",–
O=C(Oc1ccc2ccc(OC(=O)N3CCCCCC3)cc2c1)N1CCCCCC1,"inconclusive: 29.1 µM [activator, single point]",–
Cc1ccccc1NC(=O)NCCN1CC1,"inconclusive: 18.3 µM [activator, partial curve, poor fit]",–
CN1CCN(C(=O)COc2ccc(-c3nc4ccccc4s3)cc2)CC1,"inconclusive: 2.59 µM [activator, partial curve, poor fit]",–
NC(Cc1nc2ccccc2[nH]1)c1ccc(Cl)cc1 (centres undefined),active: 13 µM,–
CCN(CC)c1ccc(/C=C/[N+](=O)[O-])cc1,"inconclusive: 18.3 µM [activator, partial curve, poor fit]",–
C=CCn1c(O)c(C(C)=NCc2ccco2)c(=O)[nH]c1=O,"inconclusive: 16.4 µM [activator, single point]",–
Cc1ccc(-c2nc3ccc(Cl)cc3n2OC(=O)N(C)C)cc1,active: 2.91 µM,–
COc1ccc(-c2n[nH]c(=S)n2-c2ccc3c(c2)OCCO3)cc1OC,"inconclusive: 20.6 µM [activator, single point]",–
Cc1ccnc(SCc2nc3ccccc3s2)n1,active: 9.2 µM,–
COc1ccc(CCN2CCCC(CN(C)C(=O)c3cc(C)oc3C)C2)cc1 (centres undefined),active: 18.3 µM,–
COc1ccc(N=Nc2c(O)[nH]c(=S)[nH]c2=O)cc1,"inconclusive: 18.3 µM [activator, partial curve]",–
Cc1nn(Cc2ccccc2)c(Cl)c1C(=O)OCC(=O)Nc1cccc2ccccc12,"inconclusive: 20.6 µM [activator, partial curve, poor fit]",–

Compound,Potency,"activity change, positive = activation"
CC1CCN(CC(=O)c2ccc3c(c2)OCCO3)CC1,"inconclusive: 3.66 µM [activator, full curve]",–
CN1C(=O)CC(c2ccccc2)Nc2ccccc21 (centres undefined),"inconclusive: 16.4 µM [activator, partial curve, poor fit]",–
CCc1ccc(N2C(=O)NC(=O)/C(=C/c3cccn3CCOc3ccc(C)cc3)C2=O)cc1,"inconclusive: 32.6 µM [activator, partial curve, poor fit]",–
CC1CC(NC(=O)C2C3CCC(O3)C2C(=O)O)CC(C)(C)C1 (centres undefined),"inconclusive: 23.1 µM [activator, partial curve, poor fit]",–
C=CCn1c(O)c(Cc2ccc(OCC)cc2)c(=O)[nH]c1=O,–,inactive: -1.33%
C/C(=C\C(=O)c1ccc(Br)cc1)NCc1ccccc1,"inconclusive: 12.6 µM [activator, single point]",–
Cc1cc(C=C2C(=O)N(C)C(=S)N(C)C2=O)c(C)n1C1CCCCC1,–,inactive: -1.53%
O=C(Nc1cccc2ccccc12)N1CCC2(CC1)OCCO2,"inconclusive: 25.9 µM [activator, partial curve, poor fit]",–
O=C1C2CCN(CC2)[C@@H]1Cc1ccc2ccccc2c1O,"inconclusive: 29.1 µM [activator, single point]",–
O=C(N/N=C/c1c(O)n(CCC2=CCCCC2)c(=S)[nH]c1=O)c1ccccc1,"inconclusive: 20.6 µM [activator, partial curve, poor fit]",–
CN1/C(=C\C=C2C(=O)NC(=S)NC2=O)C(C)(C)c2ccccc21,"inconclusive: 23.1 µM [activator, single point]",–
Cc1nc(Cl)sc1C(=O)Nc1ccc2ccccc2c1,"inconclusive: 23.1 µM [activator, single point]",–
CCCCP(=O)(O)CCC(=O)O,"inconclusive: 18.4 µM [activator, single point]",–
COc1ccc(Cc2nccc3cc(OC)c(OC)cc23)cc1OC,"inconclusive: 23.1 µM [activator, single point]",–
CCN1/C(=C\C=C\C2=[N+](CC)c3ccccc3C2(C)C)C(C)(C)c2ccccc21,–,inactive: -16.8%
COc1cc(C=C2C(=O)NC(=O)NC2=O)ccc1OCc1ccc([N+](=O)[O-])cc1,active: 20.6 µM,–
N#CC1=C(N)Oc2c(c(=O)sc3ccccc23)C1c1cccnc1 (centres undefined),–,inactive: -0.275%
Cc1ccc(OCCOc2cccc(C=C3C(=O)NC(=O)NC3=O)c2)c(C)c1,"inconclusive: 0.13 µM [activator, full curve]",–
N#CCCn1cc(C(=O)Nc2ccc(F)cc2)c(-c2ccc([N+](=O)[O-])cc2)n1,"inconclusive: 32.6 µM [activator, partial curve, poor fit]",–
N#CCCn1cc(C=C2C(=O)NC(=O)NC2=O)c(-c2ccccc2)n1,–,inactive: 0.104%
O=C(Oc1ccc2c(c1)CCC2)N1CCOCC1,"inconclusive: 16.4 µM [activator, partial curve]",–
Fc1cccc(F)c1-c1nc(-c2ccc(Cl)cc2)no1,"inconclusive: 16.4 µM [activator, single point]",–
